Reference: a compilation of properties of binary mixtures (doi:10.1016/j.molliq.2016.07.039)
Some of these densities may be calculated back from excess volumes.

Test: xn = mol fraction of the nth substance listed
Settings: 101 kPa

SMILES | mass density (293.15 K, x1 = 0.25) [kg/m3] | mass density (298.15 K, x1 = 0.25) [kg/m3] | mass density (308.15 K, x1 = 0.25) [kg/m3] | mass density (318.15 K, x1 = 0.25) [kg/m3] | mass density (328.15 K, x1 = 0.25) [kg/m3] | mass density (338.15 K, x1 = 0.25) [kg/m3] | mass density (343.15 K, x1 = 0.25) [kg/m3] | mass density (293.15 K, x1 = 0.75) [kg/m3] | mass density (298.15 K, x1 = 0.75) [kg/m3] | mass density (308.15 K, x1 = 0.75) [kg/m3] | mass density (318.15 K, x1 = 0.75) [kg/m3] | mass density (328.15 K, x1 = 0.75) [kg/m3] | mass density (338.15 K, x1 = 0.75) [kg/m3]
CC[N+](CC)(CC)CC.[Cl-] + CC(=O)CCC(=O)O | 1097.4 | 1093.9 | 1086.6 | 1079.7 | 1072.5 | 1065.7 | 1062.3 |  |  |  |  |  | 
CC(=O)CCC(=O)O + CCCC[N+](CCCC)(CCCC)CCCC.[Cl-] |  |  |  |  |  |  |  | 1034.5 | 1031 | 1023.8 | 1016.7 | 1009.5 | 1002.5
